Source: PubChem BioAssay AID1963576 (National Center for Advancing Translational Sciences (NCATS), 2024)
In all, about 46,000 compounds went through this assay and about 60 (0.1%) were called active. This list was built around the results that the source calls inconclusive (neither active nor inactive); the mix of calls is not that of the screen. Calls follow the shape of the dose curve; as a rule, active = well fitted inhibition curve with a large enough effect; inconclusive = small, poorly fitted or top-dose-only effect; inactive = no such curve, though single readings can be large or run the other way. Potencies of inconclusive entries are left out as doubtful fits.

Assay: Primary qHTS assay for Inhibitors of ovarian cancer metastasis using an organotypic tumor microenvironment (TME) model. Also: nearly all actives have a fitted effect of over 65% in size.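 As to Potency: count of GFP cancer cells still attached after washing and fixation.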
Settings: SKOV3ip1-GFP adhesion/invasion on 3D omental model, fluorescence; series mostly up to 45.8 µM
Outline: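 Adhesion/invasion was scored as fixed GFP-labeled SKOV3ip1 cell counts (488/509 nm), normalized to DMSO and tomatine controls. Cancer cells in serum-free medium, with four compound doses (0.36-46 umol/L), sat 2 hr at RT then 16 hr at 37 C on a 48 hr fibroblast/mesothelial/ECM culture.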
Potency is read from the fitted curve at half-maximal effect; tags tell the direction and shape of the fitted curve.

| SMILES | Potency |
| --- | --- |
| O=C(Nc1ccc(SC(F)F)cc1)c1cc(-c2ccc3c(c2)OCCO3)on1 | inactive |
| Cc1cc(C)cc(NC(=O)Cn2c(=O)oc3cc(S(=O)(=O)N4CCCC4)ccc32)c1 | inactive |
| CN1CCN(C(CNC(=O)C(=O)Nc2ccc(F)cc2F)c2ccc3c(c2)OCO3)CC1 (centres undefined) | inconclusive [inhibitor, single point] |
| COc1cc(NC(=O)c2nnn(CC(=O)Nc3ccccc3)c2N)cc(OC)c1 | inconclusive [inhibitor, single point] |
| COc1cc(NC(=O)CCS(=O)(=O)c2nc(-c3cccs3)cc(C(F)(F)F)n2)cc(OC)c1OC | inconclusive [inhibitor, full curve, poor fit] |
| Cc1ccc2c(CC(=O)Nc3ccccc3C(F)(F)F)coc2c1C | inconclusive [inhibitor, single point] |
| Cc1c(Cl)cccc1NC(=O)CCn1c(=O)c2cccn2c2ccccc21 | inconclusive [inhibitor, single point] |
| O=C(NCCCN1CCCCC1)c1cc(Sc2ccc(Cl)cc2)nc2ccccc12 | inactive |
| COc1cccc(C(=O)NC2=NC(c3ccc(N(C)C)cc3)CC(=O)N2)c1 (centres undefined) | inactive |
| Cc1ccc(Cl)cc1N1CCN(CCNC(=O)Nc2ccc(Cl)cc2)CC1 | inconclusive [inhibitor, single point] |
| Cc1ccc(-n2c(SCC(=O)Nc3cccc(Cl)c3)nc3n[nH]c(C)c3c2=N)cc1 | inconclusive [inhibitor, partial curve, poor fit] |
| COc1ccccc1C(=O)Nc1nnc(SCc2cc(=O)n3ccc(C)cc3n2)s1 | inactive |
| C=CC(=O)Nc1cc2c(Nc3ccc(F)c(Cl)c3)ncnc2cc1OCCCN1CCOCC1 | inactive |
| O=C1CN(C(=O)Cc2ccc(F)cc2)C(c2ccccc2)c2cc(Cl)ccc2N1 (centres undefined) | inconclusive [inhibitor, single point] |
| COc1ccc(NC(=O)Cn2c(=O)n(C(C)C)c(=O)c3oc4ccccc4c32)cc1Cl | inconclusive [inhibitor, single point] |
| CCOc1ccc(CCNC(=O)c2nnc(Cc3cc(OC)c(OC)c(OC)c3)o2)cc1OCC | inconclusive [inhibitor, single point] |
| Cn1c(SCc2ccc(C(F)(F)F)cc2)nc2c([nH]c3ccccc32)c1=O | inconclusive [inhibitor, single point] |

| SMILES | Potency |
| --- | --- |
| CCN(c1ccccc1)S(=O)(=O)c1nnc(NC(=O)c2cccs2)s1 | inactive |
| Cc1ccc(C(=O)Nc2cccc(C(F)(F)F)c2)cc1-c1ccc2nc(NCCN3CCOCC3)ncc2c1 | inconclusive [inhibitor, full curve, poor fit] |
| CCCCN(C)CCCNC(=O)C1CCN(c2nc3ccc(CC)cc3s2)CC1 | inconclusive [inhibitor, single point] |
| CN(C)CCN(C)C(=O)c1ccc(NC(=O)Nc2ccc(-c3nc(N4CCOCC4)c4ccn(CC(F)(F)F)c4n3)cc2)cc1 | inconclusive [inhibitor, single point] |
| COc1ccc(-c2[nH]c3ccccc3c2SCCNC(=O)c2cc(OC)c(OC)c(OC)c2)cc1 | inconclusive [inhibitor, single point] |
| CCS(=O)(=O)N1CCC(n2c(C(F)(F)F)nc3cccnc32)CC1 | inconclusive [inhibitor, single point] |
| COCCN1C(=O)c2[nH]nc(-c3ccccc3O)c2C1c1ccc(Cl)c(Cl)c1 (centres undefined) | inconclusive [inhibitor, single point] |
| CCCc1ccc(C2Sc3ccccc3NC3=C2C(=O)c2ccccc23)cc1 (centres undefined) | inconclusive [inhibitor, single point] |
| CCn1cc2nc(SCC(=O)Nc3ccc(C)cc3C)n(Cc3ccc(C)cc3)c(=O)c2n1 | inconclusive [inhibitor, single point] |
| Cc1ccc(C)c(N2CCN(CCCNC(=O)Cn3ncc4c5ccccc5n(C)c4c3=O)CC2)c1 | inconclusive [inhibitor, single point] |
| CNC(=O)c1cc(Oc2ccc(NC(=O)Nc3cc(C(C)(C)C)nn3-c3ccc4ncccc4c3)c(F)c2)ccn1 | inconclusive [inhibitor, single point] |
| Cc1cccc(NC(=O)c2nc(S(C)(=O)=O)ncc2Cl)c1 | inconclusive [inhibitor, partial curve, poor fit] |
| CCOC(=O)c1cccc(NC(=O)c2ccc3c(Cl)c4c(nc3c2)CCC4)c1 | inactive |
| COc1ccc(C2c3c(-c4c(C)cc(C)cc4O)n[nH]c3C(=O)N2Cc2ccco2)cc1 (centres undefined) | inconclusive [inhibitor, partial curve, poor fit] |
| Cc1ccc(C)c(NC(=O)Cn2c(=O)n(Cc3ccco3)c(=O)c3oc4ccccc4c32)c1 | inactive |
| Cc1ccc(CN2C(=O)C(O)(c3c[nH]c4ccccc34)c3cc(Cl)ccc32)cc1 (centres undefined) | inconclusive [inhibitor, single point] |
| COc1ccc(C(=O)COC(=O)c2cccc(NC(=O)c3ccc(OC)c(OC)c3)c2)cc1 | inactive |
